Laboratory results published in the supplement of paper PMC8728848.
This is one part of the list.

Legend:
Assay in all cases: glycan array binding signal (z-score within array); higher = stronger binding
Conditions in all cases: glycan notation: IUPAC condensed, linker removed
[1] = target: Fuc(a1-2)[Gal(a1-3)]Gal(b1-4)GlcNAc(b1-2)Man(a1-3)[Fuc(a1-2)[Gal(a1-3)]Gal(b1-4)GlcNAc(b1-2)Man(a1-6)]Man(b1-4)GlcNAc(b1-4)GlcNAc
Outline: (§1)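 Arrays were curated from the Consortium for Functional Glycomics database, 3228 in total, and kept only where the protein sequence was available. Binding is expressed as a within-array Z-score. This score was averaged across arrays of the same protein sequence at different concentrations or buffers and across linkers, and negative values can be read as non-binding.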

[2] = target: Fuc(a1-2)[Gal(a1-3)]Gal(b1-4)GlcNAc(b1-2)Man(a1-3)[Fuc(a1-2)[Gal(a1-3)]Gal(b1-4)GlcNAc(b1-2)Man(a1-6)]Man(b1-4)GlcNAc(b1-4)[Fuc(a1-6)]GlcNAc
Outline: as §1

[3] = target: Fuc(a1-2)[Gal(a1-3)]Gal(b1-4)GlcNAc(b1-3)GalNAc
Outline: as §1

[4] = target: Fuc(a1-2)[Gal(a1-3)]Gal(b1-4)GlcNAc(b1-3)[Fuc(a1-2)[Gal(a1-3)]Gal(b1-4)GlcNAc(b1-6)]GalNAc
Outline: as §1

[5] = target: Fuc(a1-2)[Gal(a1-3)]Gal(b1-4)GlcNAc(b1-6)GalNAc
Outline: as §1

[6] = target: Fuc(a1-2)[Gal(a1-3)]Gal(b1-4)[Fuc(a1-3)]Glc
Outline: as §1

[7] = target: Fuc(a1-2)[Gal(a1-3)]Gal(b1-4)[Fuc(a1-3)]GlcNAc
Outline: as §1

[8] = target: Fuc(a1-2)[Gal(a1-3)]Gal(b1-4)[Fuc(a1-3)]GlcNAc(b1-3)GalNAc
Outline: as §1

[9] = target: Fuc(a1-2)[Gal(a1-4)]Gal(b1-4)GlcNAc
Outline: as §1

[10] = target: Fuc(a1-2)[GalNAc(a1-3)]Gal
Outline: as §1

[11] = target: Fuc(a1-2)[GalNAc(a1-3)]Gal(b1-3)GalNAc(a1-3)[Fuc(a1-2)]Gal(b1-4)GlcNAc
Outline: as §1

[12] = target: Fuc(a1-2)[GalNAc(a1-3)]Gal(b1-3)GalNAc(b1-3)Gal(a1-4)Gal(b1-4)Glc
Outline: as §1

[13] = target: Fuc(a1-2)[GalNAc(a1-3)]Gal(b1-3)GlcNAc
Outline: as §1

[14] = target: Fuc(a1-2)[GalNAc(a1-3)]Gal(b1-3)GlcNAc(b1-2)Man(a1-3)[Fuc(a1-2)[GalNAc(a1-3)]Gal(b1-3)GlcNAc(b1-2)Man(a1-6)]Man(b1-4)GlcNAc(b1-4)GlcNAc
Outline: as §1

[15] = target: Fuc(a1-2)[GalNAc(a1-3)]Gal(b1-3)GlcNAc(b1-2)Man(a1-3)[Fuc(a1-2)[GalNAc(a1-3)]Gal(b1-3)GlcNAc(b1-2)Man(a1-6)]Man(b1-4)GlcNAc(b1-4)[Fuc(a1-6)]GlcNAc
Outline: as §1

[16] = target: Fuc(a1-2)[GalNAc(a1-3)]Gal(b1-3)GlcNAc(b1-3)GalNAc
Outline: as §1

[17] = target: Fuc(a1-2)[GalNAc(a1-3)]Gal(b1-3)GlcNAc(b1-6)GalNAc
Outline: as §1

[18] = target: Fuc(a1-2)[GalNAc(a1-3)]Gal(b1-4)Glc
Outline: as §1

[19] = target: Fuc(a1-2)[GalNAc(a1-3)]Gal(b1-4)GlcNAc
Outline: as §1

[20] = target: Fuc(a1-2)[GalNAc(a1-3)]Gal(b1-4)GlcNAc(b1-2)Man
Outline: as §1

[21] = target: Fuc(a1-2)[GalNAc(a1-3)]Gal(b1-4)GlcNAc(b1-2)Man(a1-3)[Fuc(a1-2)[GalNAc(a1-3)]Gal(b1-4)GlcNAc(b1-2)Man(a1-6)]Man(b1-4)GlcNAc(b1-4)GlcNAc
Outline: as §1

[22] = target: Fuc(a1-2)[GalNAc(a1-3)]Gal(b1-4)GlcNAc(b1-2)Man(a1-3)[Fuc(a1-2)[GalNAc(a1-3)]Gal(b1-4)GlcNAc(b1-2)Man(a1-6)]Man(b1-4)GlcNAc(b1-4)[Fuc(a1-6)]GlcNAc
Outline: as §1

[23] = target: Fuc(a1-2)[GalNAc(a1-3)]Gal(b1-4)GlcNAc(b1-3)Gal(b1-4)GlcNAc
Outline: as §1

[24] = target: Fuc(a1-2)[GalNAc(a1-3)]Gal(b1-4)GlcNAc(b1-3)Gal(b1-4)GlcNAc(b1-3)Gal(b1-4)GlcNAc
Outline: as §1

[25] = target: Fuc(a1-2)[GalNAc(a1-3)]Gal(b1-4)GlcNAc(b1-3)GalNAc
Outline: as §1

[26] = target: Fuc(a1-2)[GalNAc(a1-3)]Gal(b1-4)GlcNAc(b1-3)[Fuc(a1-2)[GalNAc(a1-3)]Gal(b1-4)GlcNAc(b1-6)]GalNAc
Outline: as §1

[27] = target: Fuc(a1-2)[GalNAc(a1-3)]Gal(b1-4)GlcNAc(b1-6)GalNAc
Outline: as §1

[28] = target: Fuc(a1-2)[GalNAc(a1-3)]Gal(b1-4)[Fuc(a1-3)]GlcNAc
Outline: as §1

[29] = target: Fuc(a1-2)[GalNAc(a1-3)]Gal(b1-4)[Fuc(a1-3)]GlcNAc(b1-3)GalNAc
Outline: as §1

[30] = target: Fuc(a1-2)[GalNAc(a1-4)]Gal(b1-4)GlcNAc
Outline: as §1

[31] = target: Fuc(a1-2)[GalNAc(b1-3)]Gal
Outline: as §1

[32] = target: Fuc(a1-3)GlcNAc
Outline: as §1

[33] = target: Fuc(a1-3)[Gal(b1-4)]Glc6S
Outline: as §1

[34] = target: Fuc(a1-3)[Gal(b1-4)]GlcNAc
Outline: as §1

[35] = target: Fuc(a1-3)[Gal(b1-4)]GlcNAc(b1-2)Man
Outline: as §1

[36] = target: Fuc(a1-3)[Gal(b1-4)]GlcNAc(b1-2)Man(a1-3)[Fuc(a1-3)[Gal(b1-4)]GlcNAc(b1-2)Man(a1-6)]Man(b1-4)GlcNAc(b1-4)GlcNAc
Outline: as §1

[37] = target: Fuc(a1-3)[Gal(b1-4)]GlcNAc(b1-2)Man(a1-3)[Fuc(a1-3)[Gal(b1-4)]GlcNAc(b1-2)Man(a1-6)]Man(b1-4)GlcNAc(b1-4)[Fuc(a1-6)]GlcNAc
Outline: as §1

[38] = target: Fuc(a1-3)[Gal(b1-4)]GlcNAc(b1-3)Gal(b1-3)[Fuc(a1-4)]GlcNAc
Outline: as §1

[39] = target: Fuc(a1-3)[Gal(b1-4)]GlcNAc(b1-3)Gal(b1-4)[Fuc(a1-3)]GlcNAc
Outline: as §1

[40] = target: Fuc(a1-3)[Gal(b1-4)]GlcNAc(b1-3)Gal(b1-4)[Fuc(a1-3)]GlcNAc(b1-3)Gal(b1-4)[Fuc(a1-3)]GlcNAc
Outline: as §1

[41] = target: Fuc(a1-3)[Gal(b1-4)]GlcNAc(b1-3)GalNAc
Outline: as §1

[42] = target: Fuc(a1-3)[Gal(b1-4)]GlcNAc(b1-6)GalNAc
Outline: as §1

[43] = target: Fuc(a1-3)[Gal(b1-4)]GlcNAc(b1-6)[Gal(b1-3)GlcNAc(b1-3)]Gal(b1-4)Glc
Outline: as §1

[44] = target: Fuc(a1-3)[Gal(b1-4)]GlcNAc6S
Outline: as §1

[45] = target: Fuc(a1-3)[Gal3S(b1-4)]Glc
Outline: as §1

[46] = target: Fuc(a1-3)[Gal3S(b1-4)]GlcNAc
Outline: as §1

[47] = target: Fuc(a1-3)[Gal3S(b1-4)]GlcNAc6S
Outline: as §1

[48] = target: Fuc(a1-3)[GalNAc(b1-4)]GlcNAc
Outline: as §1

[49] = target: Fuc(a1-3)[GalNAc(b1-4)]GlcNAc6S
Outline: as §1

[50] = target: Fuc(a1-4)GlcNAc
Outline: as §1

[51] = target: Fuc(b1-3)GlcNAc
Outline: as §1

[52] = target: Gal(a1-2)Gal
Outline: as §1

[53] = target: Gal(a1-3)Gal
Outline: as §1

[54] = target: Gal(a1-3)Gal(b1-3)GlcNAc
Outline: as §1

[55] = target: Gal(a1-3)Gal(b1-3)GlcNAc(b1-2)Man
Outline: as §1

[56] = target: Gal(a1-3)Gal(b1-3)GlcNAc(b1-2)Man(a1-3)[Gal(a1-3)Gal(b1-3)GlcNAc(b1-2)Man(a1-6)]Man(b1-4)GlcNAc(b1-4)GlcNAc
Outline: as §1

[57] = target: Gal(a1-3)Gal(b1-3)GlcNAc(b1-3)GalNAc
Outline: as §1

[58] = target: Gal(a1-3)Gal(b1-3)GlcNAc(b1-6)GalNAc
Outline: as §1

[59] = target: Gal(a1-3)Gal(b1-3)[Fuc(a1-4)]GlcNAc(b1-2)Man(a1-3)[Gal(a1-3)Gal(b1-3)[Fuc(a1-4)]GlcNAc(b1-2)Man(a1-6)]Man(b1-4)GlcNAc(b1-4)GlcNAc
Outline: as §1

[60] = target: Gal(a1-3)Gal(b1-4)Glc
Outline: as §1

B1: SP16664B-bot-474-25-474 (Bacteroides ovatus) (protein)
chain: CEEDIEIGNKIDESSYLASTQLSGLLLDENTNKNSSVIELRNNEYSTNVVFRLSKLPQKGVDVQIAVEESYAAIYNTIHETDFEVFPAANVKIANNGTFVLAPDDKVTPSVKVTLTAFDGMEEDKTYIVPLTVTSSTEGVTFTETSKHMVLLVQDYRNKPNTNKGEDAVQTVLYFEVNDTNPLNALEFLTESGKYFFDHIVLFAANINWDPEKQRVYLANNENVQFLLDNNDKYLQPLRKAGMKIIISILGNHDEAGVAQLSDMGAREFARELAAYCRAYNLDGVAFDDEYSNSPDLSNPWLASPSAYAGSRLMYECKAVMPEKIVSLYNLGNMYSSSLQVIDGIEPGQYCDYAVADYGGAAGPGTGMTLKQCAGMSIELRRGSGNSSESTARSRKEAGYGYYMFFALDPSLYGSQVYRCQSVCKGLYDETLVYPSYYYKKNSTEREAIN
glycan array binding signal (z-score) [1]: 0.124 | glycan array binding signal (z-score) [2]: -0.061 | glycan array binding signal (z-score) [3]: 0.116 | glycan array binding signal (z-score) [4]: 0.402 | glycan array binding signal (z-score) [5]: -0.107 | glycan array binding signal (z-score) [6]: -0.571 | glycan array binding signal (z-score) [7]: -0.441 | glycan array binding signal (z-score) [8]: -0.321 | glycan array binding signal (z-score) [9]: 0.085 | glycan array binding signal (z-score) [10]: -0.112 | glycan array binding signal (z-score) [11]: -0.276 | glycan array binding signal (z-score) [12]: -0.296 | glycan array binding signal (z-score) [13]: -0.185 | glycan array binding signal (z-score) [14]: 0.307 | glycan array binding signal (z-score) [15]: -0.15 | glycan array binding signal (z-score) [16]: 0.153 | glycan array binding signal (z-score) [17]: -0.622 | glycan array binding signal (z-score) [18]: -0.329 | glycan array binding signal (z-score) [19]: -0.242 | glycan array binding signal (z-score) [20]: -0.388 | glycan array binding signal (z-score) [21]: 0.635 | glycan array binding signal (z-score) [22]: 1.16 | glycan array binding signal (z-score) [23]: -0.402 | glycan array binding signal (z-score) [24]: -0.018 | glycan array binding signal (z-score) [25]: -0.33 | glycan array binding signal (z-score) [26]: -0.247 | glycan array binding signal (z-score) [27]: -0.035 | glycan array binding signal (z-score) [28]: -0.073 | glycan array binding signal (z-score) [29]: 0.228 | glycan array binding signal (z-score) [30]: -0.449 | glycan array binding signal (z-score) [31]: -0.453 | glycan array binding signal (z-score) [32]: -0.354 | glycan array binding signal (z-score) [33]: -0.329 | glycan array binding signal (z-score) [34]: -0.204 | glycan array binding signal (z-score) [35]: 0.2 | glycan array binding signal (z-score) [36]: 2.22 | glycan array binding signal (z-score) [37]: 0.464 | glycan array binding signal (z-score) [38]: 0.124 | glycan array binding signal (z-score) [39]: 0.626 | glycan array binding signal (z-score) [40]: 0.096 | glycan array binding signal (z-score) [41]: 0.582 | glycan array binding signal (z-score) [42]: 0.261 | glycan array binding signal (z-score) [43]: 0.125 | glycan array binding signal (z-score) [44]: -0.473 | glycan array binding signal (z-score) [45]: -0.555 | glycan array binding signal (z-score) [46]: -0.433 | glycan array binding signal (z-score) [47]: 0.315 | glycan array binding signal (z-score) [48]: 0.422 | glycan array binding signal (z-score) [49]: 0.153 | glycan array binding signal (z-score) [50]: 2.34 | glycan array binding signal (z-score) [51]: -0.322 | glycan array binding signal (z-score) [52]: 0.194 | glycan array binding signal (z-score) [53]: -0.094 | glycan array binding signal (z-score) [54]: -0.027 | glycan array binding signal (z-score) [55]: -0.189 | glycan array binding signal (z-score) [56]: -0.011 | glycan array binding signal (z-score) [57]: 0.023 | glycan array binding signal (z-score) [58]: 0.049 | glycan array binding signal (z-score) [59]: 1.43 | glycan array binding signal (z-score) [60]: -0.427
